The values below come from patent publication US11780935B2, “Mutant antibodies and conjugation thereof” (Pfizer Healthcare Ireland, priority 2012, dated 2023).

The experiment in a line: Reactivity of VH-K^99 of h38C2-IgG1 with CATC-1, reversed phase chromatography. It counts as biochemical. The settings on record: h38C2-IgG1 after conjugation with Biotin-PFP; reacted with CATC-1. The method, then:
The antibody h38C2-IgG1 was adjusted to 20 mg/mL with HEPES buffer pH 7.5 to a final concentration of 0.02 M. Biotin-PFP was reconstituted in water to 10 mg/mL and added to h38C2-IgG1 at a molar ratio of 5:1 and allowed to react at room temperature for 2 hrs. The unreacted PFP-Biotin was removed by size exclusion chromatography and buffer exchanged into a histidine, glycine, and sucrose buffer pH 6.5. […] Conjugation of h38C2-IgG1 occurs at a distribution between 0-3 CA with an average of 1.1 conjugations. Increased conjugation would be possible following optimization of the reaction conditions. The reactivity of VH-K^99 (K^93 according to Kabat numbering) on h38C2-IgG1 was confirmed to be >95% when reacted with the catalytic antibody test compound CATC-1, and analyzed via reversed phase chromatography.

B1: h38C2-IgG1: humanized aldolase catalytic antibody (SEQ ID NO:64 and 65); in b522 conjugated with Biotin-PFP (protein)
light: ELQMTQSPSSLSASVGDRVTITCRSSQSLLHTYGSPYLNWYLQKPGQSPKLLIYKVSNRFSGVPSRFSGSGSGTDFTLTISSLQPEDFAVYFCSQGTHLPYTFGGGTKVEIKRTVAAPSVFIFPPSDEQLKSGTASVVCLLNNFYPREAKVQWKVDNALQSGNSQESVTEQDSKDSTYSLSSTLTLSKADYEKHKVYACEVTHQGLSSPVTKSFNRGEC
heavy: EVQLVESGGGLVQPGGSLRLSCAASGFTFSNYWMSWVRQSPEKGLEWVSEIRLRSDNYATHYAESVKGRFTISRDNSKNTLYLQMNSLRAEDTGIYYCKTYFYSFSYWGQGTLVTVSSASTKGPSVFPLAPSSKSTSGGTAALGCLVKDYFPEPVTVSWNSGALTSGVHTFPAVLQSSGLYSLSSVVTVPSSSLGTQTYICNVNHKPSNTKVDKRV[human IgG1 Fc cut from this listing]
modifications: biotin-PFP conjugate; Synthetic mAb
B1: the “reactivity of VH-K^99 (K^93 according to Kabat numbering)” value is more than 95%.
